Laboratory results taken from the supplement of paper PMC8674133.
Numbering of substitutions follows the chain as printed. Recombinant human monoclonal antibodies (heavy:light variable regions). ELISA EC50 on the named antigen, from 10 µg/ml down; IC50 / IC90 against spike pseudovirus on 293T-ACE2 cells, 48 h; lower = stronger. Calls: IC50 above 1,000 ng/ml = non-neutralizing; EC50 above 2,000 ng/ml = non-binder. The source prints 1000 for neutralization that was not reached; it is given as >1000 ng/ml. A few antibodies were first reported in earlier work of the same group.

B1: C1195 (protein)
chain 1: QLQLQESGPGLVKPSETLSLTCTVSGGSISSINYYWGWIRQPPGKGLEWIGSVYYSGSTYYKSSLKSRVTISVDTSKNHFSLKLISVTASDTAVYYCARLPLGYCSGGTCFPKSLWGQGTLVTVSS
chain 2: DIQMTQSPSSLSASVGDRVTITCQASQDISNYLSWYQQKPGKAPKLLIYDASNLETGVPSRFSGSGSGTDFTFTISSLQPEDIATYYCQQYDDLPALSFGGGTKVEIK
B2: C1197 (protein)
chain 1: EVQLVQSGAEVKKPGESLRISCKGSGYSFTSYWITWVRQMPGKGLEWMGRIDPSDSYTNYSPSFQGHVTFSADKSITTAYLQWSSLKASDTAMYYCARPEYCSTTTCSDDAFDIWGQGTMVTVSS
chain 2: DIQMTQSPSSLSASVGDRVTITCRASQSIGTYLNWYQQKPGKAPKLLIYTASSLQSGVPSRFSGSGSGTDFTLTISSLQPEDFATYYCQQSYSTVTFGPGTKVDIK
B3: C1457 (protein)
chain 1: QVQLVQSGAEVKKPGSSVKVSCKASGGTFSSYTISWVRQAPGQGLDWMGRIIPILGIANYAQKFQGRVTITADKSTSTAYMELSSLRSEDTAVYYCARDNVEGYNSSSIYWFDPWGQGTLVTVSS
chain 2: QSVLTQPPSVSGAPGQRVTISCTGSSSNIGAGYDVHWYQQLPGTAPKLLIYDNSNRPSGVPDRFSGSKSGTSASLAITGLQAEDEADYYCQSYDSSLSDYVFGPGTKVTVL
B4: C1187 (protein)
chain 1: QVQLQQWGAGLRKPSETLSLTCAVYGGSFSAYYWNWIRQSPGKGLEWIGETHHTGSTKYNPSLKSRVTISVDTSKNQFSLKLSSVTAADTAVYYCARATYYYDSSSYGINWFAPWGPGTLVTVSS
chain 2: B3 chain 2 with S26R, Q40H, D52V, S54N, F64I, S95N, S96D, L97V, D99G, P104G
B5: C1455 (protein)
chain 1: QVQLVQSGAEVKKPGSSVKVSCKASGGTFSSFIISWVRQAPGQGLEWMGRIIPIVGKANYAQKFQGRVTITADKSASTAYMELSSLRSEDTAVYYCAREDIEEVPAAFAYAFDIWGQGTMVTVSS
chain 2: EIVLTQSPGTLSLSPGERATLSCRASQSLSSSYLAWYQQKPGQAPRLLIYGASSRATGIPDRFSGSGSGTDFTLTISRLEPEDFAVYYCQQFVTSPPSWTFGQGTKVEIK
B6: C1464 (protein)
chain 1: VQLVESGGGLVKPGGSLRLSCAASGFTFSRYSMNWVRQSPGKGLEWVSSIRSSSTDIYYADSVRGRFTISRDNAKNSLYLQMNSLRAEDTAVYYCARAFPGDYASDDYYYYYGMDVWGQGTTVTVSS
chain 2: SYELTQPPSVSVSPGQTASITCSGHKLGDKYACWYQQKPGQSPVLLIYQDSKRPSGISERFSGSNSGNTATLTISGTQAMDEADYFCQAWDSTTAWGVFGGGTKLTVL
B7: C1463 (protein)
chain 1: QVQLVESGGGVVQPGRSLRLSCAASGFTFSNYAMHWVRQAPGKGLEWVAVISYDGSNKYYTDSVKGRFTISRDTSKNTLYLQMNSLRAEDTAVYFCARQLYYYDRSGFLHGDAFDIWGQGTMVTVSS
chain 2: DIQMTQSPSSLSASVGDRVTITCRASQGISNYLAWYQQKPGKVPKLLIYAASTLQSGVPSRFSGSGSGTDFTLTISSLQPEDVATYYCQKYNSAPTWTFGQGTKVEIK
B8: C1189 (protein)
chain 1: QVQLQESGPGLVKPSGTLSLTCTISGGSISSSNWWSWVRQSPEKGLEWIGEVFHSGSTYYNPSLKSRVTISIDKSKNQFSLQLTSMTAADTAVYYCARSSGLLDYWGQGTLVTVSS
chain 2: DIQMTQSPSSLSASVGDRVTITCRASQGIGNSLAWYQQKPGKAPKFLLYAASTLESGVPSRFSGSGSGTDFTLTISSLQPEDFATYYCQQYYSTRTFGQGTKVEIK
B9: C2436 (protein)
chain 1: QVQLQESGPGLVKPSQTLSLTCTVSGGSVSRNGDYWSWVRQHPGKGLEWIGNIYYSGSTFFNPSLKSRVIMSIDTSKNQFSLKLSSVTAADTAVYYCARDTLWGAFDIWGQGTMVTVSS
chain 2: IRMTQSPSSLSASVGDRVTITCQASQDIRKSLNWYQQKLGKAPKLLIYDVSNLETGVPSRFSGSGSGTDFIFTINSPQPEDMATYFCQQYENPPRTFGQGTKVEIK
B10: C1196 (protein)
chain 1: QLQLQESGPGLVRPSETLSLTCTVSGGSISSSGYYWDWVRQPPGKGLEWIGSIYYSGSTYSNPSLKSRVTISVDTSQNQFSLNLSSVTATDTAVYYCARGLGAFDYWGQGTLVTVSS
chain 2: DIQMTQSPSSLSASVGDRVTITCRASQGISNSLAWYQQRPGRAPRLLVYAASTLESGVPSRFSGSGSGTDFTLTISSLHPEDFATYYCQQYYSAPPRTFGQGTKVEIK
B11: C1460 (protein)
chain 1: QVQLVQSGGEVKKPGASVKVSCRASGYTFTSYSISWVRQAPGQGLEWMGWIYTYNGDTNYAQKLQGRVTMTTDTSTSTVYMELRSLRSDDTAVYYCARVETYYCSGGSCYFYDYWGQGTLVTVSS
chain 2: EIVMTQSPATLSVSPGERATLSCRASQSVSSNLGWYQQKPGQAPRLLIYGASTRATGIPARFSGSGSGTEFTLTISSLQSEDFAVYYCQQYDNWPPTWTFGQGTKVEIK
B12: C1188 (protein)
chain 1: QVQLVQSGAEVKKPGSSVKVSCRASGGTFSSYAITWVRQAPGQGLEWMGRIIPRFGTASNAQKFQGRVTITADESTSTASMELSSLRSEDTAVYYCATGVVHIVVVPTYHSYYGLDVWGQGTTVTVSS
chain 2: QSALTQPRSVSGSPGQSVTISCTGTSSDVGGYDYVSWYQQHPGKAPKLMIYDVSKRPSGVPDRFSGSKSGDTASLTISGLQAEDEAEYFCCSYAGSYTHVFGTGTEVTVL
B13: C1459 (protein)
chain 1: QVQLVQSGAEVKKPGASVKVSCKASGYSITTYYMHWVRQAPGQGLEWMGIINPSAGSTSYAQKFQGRVTMTRDTATSTVYMDLSSLRSEDTAVYYCARGGLIPDSTNWFDPWGQGTLVTVSS
chain 2: EIVLTQSPATLSLSPGERATLSCRASQSVSSYLAWYQQKPGQAPRLLIYDASNRATGIPARFSGSGSGTDFTLTISSLEPEDFAVYYCQQRSNSFTFGPGTKVDIK
B14: C1198 (protein)
chain 1: QVQLVQSGAEVKKPGSSVRVSCKASGGTFSSYAISWVRQAPGQGLEWMGGIIPMLGTGRYAQKFQGRVTITADESTRTTYMDLSSLRSEDAAVYYCARDRGPPPGGRYGFYYGMDVWGPGTTVTVSS
chain 2: QSALTQPASVSGSPGQSITISCTGTSSDVGGYNYVSWYQQHPGTAPKLVISDVSDRPSGVSNRFSGSKSGNTASLTISGLQAEDEADYYCSSYRSSSTLVVFGGGTKLTVL
B15: C1274 (protein)
chain 1: EVQLVESGGGLVQPGGSLRLSCAASGFTFSSYDMHWVRQVAGKGLEWVSAMGTAGDTYYADSVKGRFTISRENAKNSLYLQLNSLRAGDTAVYYCARGDTSMISETSQNYYYYYMDVWGKGTTVTVSS
chain 2: DIQMTQSPSSLSASVGDRVTITCRASQSIRRYLNWYQQKPGKAPKLLIYAASSLQSGVPSRFSGSGSGTDFTLTISSLQPEDFATYYCQQSYSSPPWTFGQGTKVEIK
B16: C1461 (protein)
chain 1: EVQLVESGGGLEQPGGSLRLSCAASGFSFSSYDMHWVRQVTGKGLEWVSAIGTSGDTYYSGSVKGRFTISRENAKNSLYLQMNNLRAGDTAVYYCARGTTVTTGPIRSYYYYMDVWGKGTTVTVSS
chain 2: B15 chain 2 with R30S, L46V, P80V

Biological target: SARS-CoV-2 Wuhan-Hu-1 spike pseudovirus
Assay: pseudovirus neutralization IC50; higher = weaker neutralization
Description: (§1)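 Single-round luciferase reporter pseudovirus mixed with antibody dilutions and put on 293T-ACE2 cells for 48 h; signal relative to no-antibody wells, four-parameter fit.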

Binder	pseudovirus neutralization IC50 [µg/mL]
B1	0.0258
B2	0.0553
B3	0.12
B4	0.522
B5	0.00207
B6	0.349
B7	0.0267
B8	0.0153
B9	> 1
B10	0.00558
B11	0.166
B12	> 1
B13	> 1
B14	> 1
B15	> 1
B16	> 1

Biological target: SARS-CoV-2 Wuhan-Hu-1 spike pseudovirus
Assay: pseudovirus neutralization IC90; higher = weaker neutralization
Description: as §1

Binder	pseudovirus neutralization IC90 [µg/mL]
B1	0.343
B2	> 1
B3	> 1
B4	> 1
B5	0.0659
B6	> 1
B7	0.378
B8	0.0555
B9	> 1
B10	0.0516
B11	> 1
B12	> 1
B13	> 1
B14	> 1
B15	> 1
B16	> 1

Biological target: SARS-CoV-2 Wuhan-Hu-1 spike receptor-binding domain
Assay: ELISA binding EC50; higher = weaker binding; ELISA of recombinant human antibody on coated antigen, from 10 µg/ml in fourfold dilutions; four-parameter fit.

Binder	ELISA binding EC50 [µg/mL]
B1	0.0035
B2	0.00277
B3	0.00213
B4	0.00284
B5	0.00118
B6	0.00249
B7	0.00174
B8	0.00231
B9	0.00586
B10	0.002
B11	0.00195
B12	0.00381
B13	0.00404
B14	0.0155
B15	0.00169
B16	0.00282
